We go through six molecules from publication PMC9107170.

Chains of the proteins cited; added tags and fusions are not shown. Lines headed by an entry give the natural chain unless they say otherwise; changes in a name come on top.
UniProt Q9UBF6: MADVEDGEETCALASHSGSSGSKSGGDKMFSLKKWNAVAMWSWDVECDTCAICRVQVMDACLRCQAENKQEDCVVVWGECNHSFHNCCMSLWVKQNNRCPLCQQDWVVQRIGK
UniProt O15524: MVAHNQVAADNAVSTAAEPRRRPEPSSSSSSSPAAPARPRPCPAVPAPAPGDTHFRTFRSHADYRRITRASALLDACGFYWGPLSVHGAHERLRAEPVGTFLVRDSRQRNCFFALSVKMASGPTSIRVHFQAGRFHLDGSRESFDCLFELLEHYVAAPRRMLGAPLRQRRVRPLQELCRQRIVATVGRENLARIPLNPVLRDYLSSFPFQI
UniProt O75925: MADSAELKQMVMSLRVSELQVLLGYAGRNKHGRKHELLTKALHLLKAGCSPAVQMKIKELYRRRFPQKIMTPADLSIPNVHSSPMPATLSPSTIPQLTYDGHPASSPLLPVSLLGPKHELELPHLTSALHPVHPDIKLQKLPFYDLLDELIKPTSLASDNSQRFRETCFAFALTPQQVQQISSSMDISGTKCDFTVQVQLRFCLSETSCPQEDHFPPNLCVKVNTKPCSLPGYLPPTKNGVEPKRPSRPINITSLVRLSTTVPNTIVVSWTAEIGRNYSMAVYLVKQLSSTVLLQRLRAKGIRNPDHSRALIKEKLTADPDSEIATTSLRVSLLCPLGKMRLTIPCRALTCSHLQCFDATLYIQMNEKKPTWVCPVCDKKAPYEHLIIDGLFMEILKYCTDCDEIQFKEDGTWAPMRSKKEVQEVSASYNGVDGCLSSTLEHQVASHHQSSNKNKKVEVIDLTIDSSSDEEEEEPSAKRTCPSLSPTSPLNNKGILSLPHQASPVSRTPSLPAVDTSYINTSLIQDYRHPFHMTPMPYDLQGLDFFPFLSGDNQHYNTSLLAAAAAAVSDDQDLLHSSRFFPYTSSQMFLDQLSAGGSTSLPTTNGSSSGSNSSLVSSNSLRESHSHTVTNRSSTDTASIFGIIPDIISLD
UniProt P29350: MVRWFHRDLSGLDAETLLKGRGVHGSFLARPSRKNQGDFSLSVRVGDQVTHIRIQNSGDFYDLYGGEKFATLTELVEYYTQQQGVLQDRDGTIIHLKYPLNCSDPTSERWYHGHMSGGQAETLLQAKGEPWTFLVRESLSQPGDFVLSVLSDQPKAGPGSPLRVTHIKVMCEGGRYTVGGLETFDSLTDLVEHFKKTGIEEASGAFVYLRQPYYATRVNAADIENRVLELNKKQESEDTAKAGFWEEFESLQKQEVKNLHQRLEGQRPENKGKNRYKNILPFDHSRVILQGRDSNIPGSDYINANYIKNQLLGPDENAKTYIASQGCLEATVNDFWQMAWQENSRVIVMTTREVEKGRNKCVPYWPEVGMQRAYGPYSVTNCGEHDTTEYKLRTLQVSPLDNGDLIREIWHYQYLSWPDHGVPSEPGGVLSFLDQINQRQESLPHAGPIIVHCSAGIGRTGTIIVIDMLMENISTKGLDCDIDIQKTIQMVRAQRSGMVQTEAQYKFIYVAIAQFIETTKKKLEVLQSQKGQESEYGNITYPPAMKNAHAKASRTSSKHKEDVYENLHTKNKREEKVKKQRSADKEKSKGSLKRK
UniProt O14543: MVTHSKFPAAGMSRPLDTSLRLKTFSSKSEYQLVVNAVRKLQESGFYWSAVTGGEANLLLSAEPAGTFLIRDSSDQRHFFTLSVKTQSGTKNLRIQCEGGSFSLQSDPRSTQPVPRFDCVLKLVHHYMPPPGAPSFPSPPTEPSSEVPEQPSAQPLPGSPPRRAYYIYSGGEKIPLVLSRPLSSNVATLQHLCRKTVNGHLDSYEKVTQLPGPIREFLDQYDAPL

Results are given in words; binding and its absence hold for the method and conditions named. Binding seen in cells or lysates may run through a third protein. Some binding calls cover weakened binding; strength is not graded here.

Assay [1] has as its target RING finger protein 7 (human (endogenous in Caki-1 and ACHN)) (UniProt Q9UBF6). Nature of the assay: co-IP; Caki-1 cell lysates (RIPA buffer with 1 mM DTT, 100 mmol/l NaCl, 1 mM MgCl2) immunoprecipitated with RNF7 antibodies, protein A/G agarose, 4 °C 2 h; Western blot for JAK/STAT3 signaling proteins (Fig. S2A). On the technique in general: A western blot detects proteins with antibodies after separation by electrophoresis.

Assay [2] addresses SOCS1 (human (endogenous in Caki-1 and ACHN)) (UniProt O15524). Put plainly: co-IP; reciprocal co-immunoprecipitation in Caki-1 and ACHN cell lysates with control IgG, anti-RNF7 or anti-SOCS1 antibodies, protein A/G agarose, 4 °C 2 h; Western blot (Fig. 5A).
For assay [3], the target named is RING finger protein 7 (human (endogenous in Caki-1 and ACHN)) (UniProt Q9UBF6). The assay is described as above.

Regarding PIAS1 (from UniProt O75925 1-651), the binding result in assay [1] was “no binding”.

Regarding “RING finger protein 7 (from UniProt Q9UBF6-1 1-113)”, the binding result in assay [2] was “binds”.

Turning to SHP-1 (from UniProt P29350 1-595), in assay [1], the binding result was “no binding”.

As for SOCS1 (from UniProt O15524 1-211), the binding entry in assay [3] and in assay [1] was “binds” each time.

Take SOCS3 (from UniProt O14543 1-225): the binding result in assay [1] was “no binding”.

B1: PTP1B (protein, UniProt P18031 1-435)
chain: MEMEKEFEQIDKSGSWAAIYQDIRHEASDFPCRVAKLPKNKNRNRYRDVSPFDHSRIKLHQEDNDYINASLIKMEEAQRSYILTQGPLPNTCGHFWEMVWEQKSRGVVMLNRVMEKGSLKCAQYWPQKEEKEMIFEDTNLKLTLISEDIKSYYTVRQLELENLTTQETREILHFHYTTWPDFGVPESPASFLNFLFKVRESGSLSPEHGPVVVHCSAGIGRSGTFCLADTCLLLMDKRKDPSSVDIKKVLLEMRKFRMGLIQTADQLRFSYLAVIEGAKFIMGDSSVQDQWKELSHEDLEPPPEHIPPPPRPPKRILEPHNGKCREFFPNHQWVKEETQEDKDCPIKEEKGSPLNAAPYGIESMSQDTEVRSRVVGGSLRGAQAASPAKGEPSLPEKDEDHALSYWKPFLVNMCVATVLTAGAYLCYRFLFNSNT
With B1, the binding result in assay [1] is “no binding”.
